Data reported in patent US20240398845A1, “USE OF SGLT-2 INHIBITORS FOR THE PREVENTION AND/OR TREATMENT OF CARDIAC DISEASES IN NON-HUMAN MAMMALS EXCLUDING FELINES, IN PARTICULAR CANINES” (BOEHRINGER INGELHEIM VETMEDICA GMBH, priority 2021, published 2024).
Where two headings read alike, the source gives them in different places.

System: dogs with occult or overt dilated cardiomyopathy (DCM)
Settings: for cTnI: n < 0.08 ng/ml; for LVIDDN: n < 1.65; for MV E/A: restrictive > 2.0; for LA/Ao: n < 1.5; for EPSS: n < 7 mm; for FS %: n > 20%; for ESVI: n < 50 ml/m2; for EDVI: n < 100 ml/m2

Structure (SMILES): N#Cc1ccc([C@@H]2O[C@H](CO)[C@@H](O)[C@H](O)[C@H]2O)cc1Cc1ccc(C2CC2)cc1 [velagliflozin, Velagliflozin]
- cTnI (case 100-006, overt DCM, velagliflozin oral 0.05 mg/kg bodyweight/day only, Visit 2 (D 45), screening visit 0.11): 0.54 ng/mL
- LVIDDN (case 100-006, overt DCM, velagliflozin oral 0.05 mg/kg bodyweight/day only, Visit 2 (D 45), screening visit 2.62): 2.37
- MV E/A (case 100-006, overt DCM, velagliflozin oral 0.05 mg/kg bodyweight/day only, Visit 2 (D 45), screening visit 2.84): 2.58
- LA/Ao (case 100-006, overt DCM, velagliflozin oral 0.05 mg/kg bodyweight/day only, Visit 2 (D 45), screening visit 3.08): 2.69
- EPSS (case 100-006, overt DCM, velagliflozin oral 0.05 mg/kg bodyweight/day only, Visit 2 (D 45), screening visit 13.1): 19.9 mm
- FS % (case 100-006, overt DCM, velagliflozin oral 0.05 mg/kg bodyweight/day only, Visit 2 (D 45), screening visit 24.36): 20.25%
- ESVI (case 100-006, overt DCM, velagliflozin oral 0.05 mg/kg bodyweight/day only, Visit 2 (D 45), screening visit 147.93): 135.74 ml/m2
- EDVI (case 100-006, overt DCM, velagliflozin oral 0.05 mg/kg bodyweight/day only, Visit 2 (D 45), screening visit 280.19): 225.31 ml/m2
- NT-proBNP (case 100-006, overt DCM, velagliflozin oral 0.05 mg/kg bodyweight/day only, Visit 2 (D 45), screening visit 708.00, n < 500 pmol/l): 197.50 pmol/L
- cardiac TnI (in words) (case 100-007, overt DCM, at D45): decreased significantly
- cTnI (in words) (case 100-007, overt DCM, at D90): increased moderately
- creatinine and urea (case 100-007, overt DCM, at study end D101): mild increase
- NT-proBNP (in words) (case 100-007, overt DCM, at the end of the study): elevated
- LVIDDN (case 100-007, overt DCM, velagliflozin only, Visit 2 (D 45), screening visit 2.6): 2.57
- LA/Ao (case 100-007, overt DCM, velagliflozin only, Visit 2 (D 45), screening visit 2.71): 2.6
- MV E/A (case 100-007, overt DCM, velagliflozin only, Visit 2 (D 45), screening visit 2.78): 1.87
- EPSS (case 100-007, overt DCM, velagliflozin only, Visit 2 (D 45), screening visit 13.7): 15.9 mm
- FS % (case 100-007, overt DCM, velagliflozin only, Visit 2 (D 45), screening visit 19.3): 15.4%
- ESVI (case 100-007, overt DCM, velagliflozin only, Visit 2 (D 45), screening visit 167.59): 180.79 ml/m2
- EDVI (case 100-007, overt DCM, velagliflozin only, Visit 2 (D 45), screening visit 273.4): 264.71 ml/m2
- cTnI (case 100-007, overt DCM, velagliflozin oral 0.05 mg/kg bodyweight/day only, Visit 2 (D 45), screening visit 0.27): 0.09 ng/mL
